B1: full length His-MAD2 (natural protein)
chain: not shown
B2: MAD2 L13A (natural protein)
chain: not shown
B3: MAD2 dimerization mutant, F141A (natural protein)
chain: not shown
B4: MAD2 dimerization mutant, R133A (natural protein)
chain: not shown

Each binder was assayed against Flag-tagged full length WT1 protein (residue 1–449, including exon 5/17AA and KTS) (human, UniProt P19544 1-449) (assay: pull-down).
UniProt P19544, sequence (P19544 whole entry, change not shown): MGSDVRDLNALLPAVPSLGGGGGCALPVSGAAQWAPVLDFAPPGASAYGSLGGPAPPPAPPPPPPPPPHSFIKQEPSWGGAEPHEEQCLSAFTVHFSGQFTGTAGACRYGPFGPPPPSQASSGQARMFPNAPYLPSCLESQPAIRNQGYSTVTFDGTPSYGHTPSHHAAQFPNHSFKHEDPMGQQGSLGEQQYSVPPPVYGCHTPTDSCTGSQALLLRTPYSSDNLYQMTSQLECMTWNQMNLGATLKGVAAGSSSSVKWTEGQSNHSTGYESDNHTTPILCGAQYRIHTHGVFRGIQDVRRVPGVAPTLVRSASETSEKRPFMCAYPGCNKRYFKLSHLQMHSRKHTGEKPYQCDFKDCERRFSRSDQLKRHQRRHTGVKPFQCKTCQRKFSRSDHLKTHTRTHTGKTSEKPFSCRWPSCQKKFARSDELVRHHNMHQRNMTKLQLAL

| Binder | binding result |
| --- | --- |
| B1 | binds |
| B2 | binds |
| B3 | binds |
| B4 | binds |

Source: PMC4170573 (Nature communications, 2014)
